Experimental data as given in the supplement of paper PMC3334620.
In all, about 33,000 sequences were measured (“E-score (-0.5 to 0.5)”: median about -0.013, highest 2% from about 0.3 on). The list shows a part of the results.

Each sequence was assayed against T1, Msn1 (UniProt P22148) (assay: PBM E-score (8-mer binding enrichment) (E-score (-0.5 to 0.5)); higher = stronger / more preferred TF binding; most listed sequences are background and not binding sites). Details: protein concentration: 200 nM; construct: GST-full length.
T1 sequence: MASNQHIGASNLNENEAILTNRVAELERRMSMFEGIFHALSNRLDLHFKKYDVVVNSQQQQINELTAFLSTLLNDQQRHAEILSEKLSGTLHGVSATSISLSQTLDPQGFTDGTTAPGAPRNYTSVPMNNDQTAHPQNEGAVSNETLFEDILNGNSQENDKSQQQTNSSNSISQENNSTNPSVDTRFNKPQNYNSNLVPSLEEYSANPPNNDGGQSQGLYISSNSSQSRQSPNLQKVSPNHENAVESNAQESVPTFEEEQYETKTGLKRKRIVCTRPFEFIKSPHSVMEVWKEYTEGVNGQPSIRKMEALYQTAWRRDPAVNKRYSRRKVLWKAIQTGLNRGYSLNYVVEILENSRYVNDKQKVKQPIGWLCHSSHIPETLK
Procedure, shortened: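 Detection of bound protein used fluorescent anti-GST, with scans normalised by masliner. The proteins were GST-tagged yeast transcription factors applied at about 100-200 nM to universal all-10-mer Agilent arrays made double-stranded by primer extension. Each ungapped eight-base word, pooled with its reverse complement, was scored with an E-score from the Universal PBM Analysis Suite.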

Sequence	PBM E-score
AATGTGAC	0.0889
AGTCGTAC	-0.0642
ATCCTCGG	0.129
TGGAGCAA	0.0733
AGAATAGC	0.016
ACGAGGGG	-0.34
GCGTTGAC	-0.0906
CCCAATAA	-0.147
ACTGCGGG	-0.124
ATCAGACG	-0.154
GCAGGTTA	-0.233
AAATGACT	0.0423
TACTGCTA	-0.0837
AGGGCCCT	-0.139
ATCTGCTC	-0.134
AAACACAT	0.0288
CGTGGAGA	-0.0918
ATGAGCGG	-0.175
GGCTTAAC	-0.116
ACGATTCG	-0.0302
GAGGCAAC	-0.263
GTTGGTAA	0.0523

Sequence	PBM E-score
ACGTCCAA	0.142
TCCACCGA	-0.0613
CGCTGCTA	-0.121
AAGGGATG	-0.119
GCTTATAC	-0.0678
AGAGAGTA	-0.122
TCTGGAAA	-0.0457
CCCAGGTA	-0.116
CCCCTCGA	-0.0177
CAATGGGC	-0.143
CGCGATAG	-0.0603
AACAGCCC	0.0239
ATCGTACG	0.0214
AAACGCAC	-0.0443
GAGAACTC	-0.162
AGTGCCTC	-0.127
GTTGCAAA	0.115
AATTAATC	0.0989
AATAGCCA	0.0891
AGGGTCTC	-0.25
CTGCATGC	-0.0271
CTCCGCGC	-0.00855

Sequence	PBM E-score
GACACTAA	0.211
AAGATCAA	0.0239
GATCTCAC	-0.0662
ATCTATGC	0.133
TCTCGTCA	-0.0168
CCGACTAA	0.0907
CCAATGCG	-0.199
ACCATTTA	0.0929
CTGCGGTA	0.0889
GTTGAAGA	0.0838
TTACCTAA	0.00814
GGGCGTAC	-0.0104
GAATATTA	0.19
AAACCGCC	-0.0343
CCCAGCTA	-0.208
GCTCATCC	-0.219
ACGCCCCC	-0.284
CGCACGTA	-0.138
TTCACAAA	0.0203
CAGGGATA	-0.122
CAGACGTA	0.0031
GACCAAGA	-0.00983

Sequence	PBM E-score
GAGATTGA	-0.0741
CATTCCCA	0.0356
ACCTGGAA	0.0986
ATGCCGCA	0.0532
AGACGACA	0.138
ATATCTGA	0.112
ACCATAAG	-0.115
CCTCAAAC	-0.0717
CCACCCCG	-0.211
AATGTCTC	0.463
ATTCTAAG	0.154
CCCTCCCC	-0.125
AACAATGA	0.193
AGGTCCGA	0.132
CTAGCTCC	-0.148
ACTCTTCT	-0.215
GAAGAGGA	-0.152
CCCGCGCC	-0.216
AGAACGTA	-0.0851
AATTAGCG	0.0486
AGTAGCCG	-0.0737
ACTTCCAG	-0.219

Sequence	PBM E-score
AGAGTAAT	0.139
TCATTGCA	-0.019
GAACTCGC	0.0554
TCTCAACA	0.0746
AGGGACAG	0.107
CAATGCGA	-0.14
CGCCCAAC	-0.127
ACCGCTGG	-0.0751
GCCCGTAA	-0.0686
AGATCTAA	-0.112
AGAGTGCG	0.0388
AAGGGTAT	0.00629
GAAGTTGA	0.00923
CGACCGAA	0.104
CAGAGAAG	-0.18
GGAATAGA	0.169
CCATAATC	0.139
AGGCTGAC	-0.178
ATGCCGTG	0.0686
AAGCTAGC	-0.138
ATGAACAG	0.123
ACTGACAG	0.14
